Measurements from PMC4336329 (PLoS ONE, 2015).
Screen size: about 310,000 compounds; about 14,000 (4.5%) showed an effect of 50% or more. The effect is printed as a negative number. This is one part of the list. Where a SMILES comes first, the peptide text is derived from it. The star is where a group is joined. Boc = CC(C)(C)OC(=O)*

Target: human ether-à-go-go-related gene (hERG) potassium channel (human, UniProt Q12809)
Assay: primary screen, population patch clamp on CHO cells stably expressing hERG
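Also: peak tail current of the secondary pulse compared with the same well before compound.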

Chain of human ether-à-go-go-related gene (hERG) potassium channel (Q12809 whole entry, looked up): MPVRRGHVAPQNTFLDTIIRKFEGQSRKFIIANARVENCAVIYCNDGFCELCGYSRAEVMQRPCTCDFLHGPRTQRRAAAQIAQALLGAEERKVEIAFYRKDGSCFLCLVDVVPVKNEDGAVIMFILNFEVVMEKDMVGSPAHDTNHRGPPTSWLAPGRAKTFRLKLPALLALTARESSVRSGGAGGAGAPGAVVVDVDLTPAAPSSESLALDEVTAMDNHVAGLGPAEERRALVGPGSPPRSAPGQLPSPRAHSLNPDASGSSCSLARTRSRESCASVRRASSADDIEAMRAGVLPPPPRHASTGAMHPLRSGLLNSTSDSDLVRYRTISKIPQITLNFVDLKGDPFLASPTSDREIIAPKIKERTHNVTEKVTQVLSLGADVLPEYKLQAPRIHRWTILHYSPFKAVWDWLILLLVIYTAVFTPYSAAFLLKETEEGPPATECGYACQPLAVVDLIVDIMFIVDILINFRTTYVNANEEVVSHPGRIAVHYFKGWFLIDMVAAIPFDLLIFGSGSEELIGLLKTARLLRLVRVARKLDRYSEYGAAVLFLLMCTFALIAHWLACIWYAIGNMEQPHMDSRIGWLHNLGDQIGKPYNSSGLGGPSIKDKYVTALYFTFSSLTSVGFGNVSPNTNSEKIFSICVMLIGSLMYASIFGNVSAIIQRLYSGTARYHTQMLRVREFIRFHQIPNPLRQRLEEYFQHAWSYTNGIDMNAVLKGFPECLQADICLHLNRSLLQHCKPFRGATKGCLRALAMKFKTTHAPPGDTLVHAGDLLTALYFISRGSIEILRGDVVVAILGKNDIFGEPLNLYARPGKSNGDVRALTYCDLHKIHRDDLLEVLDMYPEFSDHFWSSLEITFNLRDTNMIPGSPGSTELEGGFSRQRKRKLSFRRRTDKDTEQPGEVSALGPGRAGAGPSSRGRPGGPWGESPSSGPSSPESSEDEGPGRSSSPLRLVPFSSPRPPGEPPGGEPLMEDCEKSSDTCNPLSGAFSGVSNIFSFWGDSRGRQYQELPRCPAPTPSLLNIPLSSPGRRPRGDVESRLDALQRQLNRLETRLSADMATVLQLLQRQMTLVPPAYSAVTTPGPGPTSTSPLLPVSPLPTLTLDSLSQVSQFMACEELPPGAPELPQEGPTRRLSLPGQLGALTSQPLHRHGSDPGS

Row | SMILES | hERG current change (%, negative = inhibition) at 10uM [%]
1 | O=C1CCC(=O)N1c1ccc(-c2nc3ccccc3s2)cc1 | 16
2 | Cc1ccc(CNS(=O)(=O)c2ccc3c(c2)CCN3C(=O)CCCC(=O)O)cc1 | -8.37
3 | COc1cc(C2=NOC(C(=O)NCc3ccco3)C2)cc(OC)c1OC (stereo not drawn) | -6.37
4 | Cc1ccc(-c2cc3nc(-c4ccc(Br)cc4)cc(N)n3n2)cc1 | -8.51
5 | O=C(NC1CC2CCCC(C1)N2Cc1ccccc1)c1cccc(F)c1 (stereo not drawn) | -56.8
6 | COc1ccc(Cl)cc1NC(=O)c1ccccc1C | -4.07
7 | COc1ccc(NC(=O)CSc2ccc3nnc(-c4ccccn4)n3n2)cc1 | -20.9
8 | CCc1cc2ccc(C)cc2nc1SCC(=O)Nc1cc(C)on1 | 21.4
9 | CN(C)/C=C/C(=O)c1ccc(Oc2ncccn2)cc1 | 45
10 | COC(=O)c1cccnc1-n1c(=O)c2cccnc2n(CC(=O)Nc2ccc(Br)cc2)c1=O | 6.72
11 | CCN(CC)C(=S)Nc1ccc2nc3n(c(=O)c2c1)CCCCC3 | -21.8
12 | CNc1ncc(-c2nnnn2-c2ccccc2)c(-c2ccccc2)n1 | -16.7
13 | COc1ccc(N(CC(=O)N2c3ccccc3CC2C)S(=O)(=O)c2c(C)noc2C)cc1 (stereo not drawn) | 4.65
14 | COc1cc2c(cc1NC(=O)CSc1nnc(Cc3cccs3)n1Cc1ccco1)oc1ccccc12 | 5.88
15 | CC1CCN(C(=O)Cn2c(=O)oc3ccccc32)CC1 | -2.09
16 | NC(=O)[C@@H]1CCOc2c(F)cc([N+](=O)[O-])cc2C(=O)N[C@@H](CO)C(=O)NCC(=O)N1 | 11.1
17 | CC(C)(C)c1ccc(OCC(=O)N2CCCCCC2)c(Br)c1 | -11.9
18 | COc1ccc(-c2c(C)nn3c(-c4ccccc4)cc(C)nc23)cc1 | -13.3
19 | CCCN1CCN(CCCNC(=O)C2CCN(c3nnc(-n4c(C)ccc4C)s3)CC2)CC1 | -9.76
20 | COC(=O)N(C)c1ccccc1C(=O)N1CCOCC1 | -0.159
21 | O=c1nccc(NCc2ccco2)[nH]1 | -5.68
22 | O=C1N/C(=N\N=C\c2cccs2)SC1Cc1cccc(Cl)c1Cl (stereo not drawn) | 4.64

Row | SMILES | hERG current change (%, negative = inhibition) at 10uM [%]
23 | COc1ccc(OCC(=O)Nc2nccs2)cc1 | -1.31
24 | CN1CCN(C(=O)CCN2C(=O)S/C(=C/c3ccc(Cl)cc3)C2=O)CC1 | -35.3
25 | O=C(NNC(=S)NC(=O)c1ccccc1[N+](=O)[O-])c1ccccc1Cl | 6.38
26 | C/C(=N/NC(=O)c1cn(-c2cccc(C)n2)cn1)c1ccc(C)cc1 | -0.713
27 | COC(=O)c1ccc(/C=N/Nc2nc(-c3ccc(C)cc3)cs2)cc1 | 4.82
28 | C=CCN(c1nc(C)cc(OC)n1)S(=O)(=O)c1ccc(C)cc1 | 5.17
29 | Nc1[nH]n(-c2ccccc2)c(=O)c1N=Nc1ccc2ncsc2c1 | 4.05
30 | CCCCNC(=O)c1nc2ncc(Br)cn2n1 | -21
31 | S=C(NC1CC1)NC1CCCc2ccccc21 (stereo not drawn) | 6.39
32 | CCCCn1c(SCC(=O)NCc2ccco2)nc2c(sc3ccccc32)c1=O | -16.8
33 | CCCN(C(=O)COC(=O)CC1CCCCC1)c1c(N)n(Cc2ccccc2)c(=O)[nH]c1=O | 8.64
34 | CCN1CC2([N+](=O)[O-])C=CC(=O)C([N+](=O)[O-])(C1)C2CC(=O)c1ccccc1 (stereo not drawn) | 11.2
35 | CN(Cc1ccccc1)S(=O)(=O)c1ccc2c(c1)CCC(=O)N2 | 12
36 | C/C=C(/C)C(=O)O[C@H]1[C@@H](O)c2c(ccc3ccc(=O)oc23)OC1(C)C | 3.92
37 | O=C(CS(=O)(=O)c1ccccc1)Nc1ccc(N2CCOCC2)cc1 | 30
38 | CCOC(=O)c1ccc(NC(=O)Nc2ccc3c(c2)OCCO3)cc1 | 10.6
39 | Cc1ccc(-n2nc(C(=O)O)nc2-c2ccccc2)cc1 | 6.5
40 | Cc1ccc(SCCc2cc[n+](CC(=O)c3ccccc3)cc2)cc1 | -70.5
41 | COc1cc(C2CC(=O)Oc3c(C(CCN4CCOCC4)c4ccc(N(C)C)cc4)c(OC)cc(OC)c32)cc(OC)c1OC (stereo not drawn) | -10.8
42 | COc1ccccc1OCCCCn1c(C(C)O)nc2ccccc21 (stereo not drawn) | -2.64
43 | CCOc1ccc(NC(=O)N2CCCC2C(=O)NCc2ccco2)cc1 (stereo not drawn) | 11.4
44 | CC(C)(C)C(=O)N1CCCC1C(=O)O (stereo not drawn) | 8.61

Row | SMILES | hERG current change (%, negative = inhibition) at 10uM [%]
45 | CCC(=O)Nc1ccc(Oc2ccc3c(c2)C(=O)N(c2ccc(O)cc2)C3=O)cc1 | 22.9
46 | CNC(=S)/N=C(/Nc1ccccc1)c1ccccc1 | -3.18
47 | O=C1CCC(/C=C/c2ccccc2)=NN1Cc1ccccc1 | -3.3
48 | COc1ccc(/C(N)=N/OC(=O)c2cccc([N+](=O)[O-])c2)cc1OC | -14.8
49 | CN(C)c1c(N)c(=O)oc2ccccc12 | 29.4
50 | COC(=O)C1CCN(C(=O)COC(=O)c2ccc(OC)c(S(=O)(=O)N3CCCc4ccccc43)c2)CC1 | -45.7
51 | Cc1cc(=O)[nH]c(-n2ncc(C#N)c2N)n1 | 33.9
52 | COc1ccc([N+](=O)[O-])cc1NC(=O)C(C)OC(=O)CSC(C)C(=O)Nc1cc(C)on1 (stereo not drawn) | -28.2
53 | Cc1cc(OCC(O)CNC(C)c2ccccc2)ccc1C(C)C.Cl (stereo not drawn) | -26
54 | CNC(=S)N(Cc1ccc(Cl)cc1)Cc1cccs1 | -38.5
55 | CC(C)c1ccc(C(CC(=O)O)NC(=O)c2cccs2)cc1 (stereo not drawn) | 27.2
56 | CN(c1ccc(C(=O)N2CCN(Cc3ccc4c(c3)OCO4)CC2)cc1)S(=O)(=O)c1ccccc1 | -38.3
57 | NC(=O)CC[C@@H]1NC(=O)[C@@H]2CCCN2C(=O)c2cc([N+](=O)[O-])cc(I)c2NCCCC[C@@H](C(=O)NC(CC(=O)O)C(N)=O)NC1=O (stereo partly drawn) | -16.4
58 | Cc1ccc(NC(=S)NCCO)c(C)c1 | 9.15
59 | Cc1c(C)c2c(OCC(=O)NCC(=O)NCC(=O)O)cc3c(c2oc1=O)CCC(C)(C)O3 | 15.2
60 | O=C(Cn1ccc([N+](=O)[O-])n1)NCc1ccccc1 | 9.94
61 | CCc1nnc(NS(=O)(=O)c2ccc(Nc3ccc4nonc4c3[N+](=O)[O-])cc2)s1 | 2.96
62 | O=C(NCc1ccco1)/C(=C\c1ccccc1)NC(=O)c1ccccc1 | 6.85
63 | COCCN1C(=O)c2oc3ccccc3c(=O)c2C1c1cccc(O)c1 (stereo not drawn) | 4.66
64 | Cl.O=C(c1cccc(S(=O)(=O)NCc2ccccc2)c1)N1CCN(Cc2ccccc2)CC1 | -34.8
65 | O=C(CSCc1ccc(Cl)cc1)NCc1ccccn1 | 8.42
66 | COc1ccc(CCNC(=O)c2c(O)c3cccc4c3n(c2=O)CC4)cc1 | 6.47

Row | SMILES | hERG current change (%, negative = inhibition) at 10uM [%]
67 | Cc1ccc(C)c(SCC(=O)OCC(=O)Nc2ccc(S(=O)(=O)N3CCOCC3)cc2)c1 | 3.65
68 | O=C(O)c1cccc2c1C(=O)N(C1CCCCC1)C2 | -24.3
69 | O=C(NCc1ccccc1CN1CCCC1)C1CCN(S(=O)(=O)c2ccc(Cl)cc2)CC1 | -69.4
70 | O=C(C1CCCN(S(=O)(=O)c2cccs2)C1)N1CCN(C2CCCCC2)CC1 (stereo not drawn) | -24.6
71 | CCCCCCOC(=O)NCC(O)c1ccccc1 (stereo not drawn) | -8.23
72 | O=S1(=O)N=C(N/N=C/C=C/c2ccccc2)c2ccccc21 | 2.08
73 | Cc1occc1C(=O)NNC(=O)CN1C(=O)NC(C)(c2ccccc2)C1=O (stereo not drawn) | 19.1
74 | CCc1nc(NCc2ccccn2)c2oc3ccccc3c2n1.Cl | -9.37
75 | Cl.O=C(COc1ccccc1)N1CCN(CC(O)COc2ccccc2)CC1 (stereo not drawn) | -50.8
76 | Cc1c(C)n2c3c(cccc13)CC2 | -0.781
77 | CCOC(=O)C1CCN(Cc2ccc(Cl)nc2)CC1 | 1.35
78 | CC(C(=O)Nc1ccccc1)N(C)Cc1cccs1 (stereo not drawn) | 8.67
79 | OC(CNC1Cc2ccccc2C1)COc1ccc(Cl)cc1 (stereo not drawn) | -68.8
80 | Cc1ccc(NC(=S)c2ccccc2)cc1 | 16.4
81 | COC(=O)c1ccc(C(C2C(=O)CC(C)(C)CC2=O)C2C(=O)CC(C)(C)CC2=O)cc1 | 16.9
82 | NNC(=O)c1ccc(N2CCCCCC2)c([N+](=O)[O-])c1 | -9.73
83 | CCC(=O)Nc1nonc1-c1nc2ccccc2n1Cc1ccccc1 | 10.3
84 | CC(NC(=O)C(NC(=O)C1CCCN1C(=O)OC(C)(C)C)C(C)C)C(N)=O (stereo not drawn) (Boc-Pro-Val-Ala-NH2; configuration not given here) | -7.45
85 | Cn1cc(C(=O)N/N=C/C=C/c2ccccc2)ccc1=O | -12.8
86 | Cc1ccc(C)c(COC(=O)c2cc(S(=O)(=O)N3CCCCC3)ccc2N2CCOCC2)c1 | -6.53
87 | Cc1ccc(C)c(NC(=O)CCN2CCCCC2)c1 | 12.6
